{"source": "the supplement of paper PMC8728848", "assay_in_all_cases": "glycan array binding signal (z-score within array); higher = stronger binding", "details_in_all_cases": "glycan notation: IUPAC condensed, linker removed", "key": {"Fuc(a1-2)Gal": {"molecular_target": "Fuc(a1-2)Gal", "in_short": "(§1)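 Negative Z-scores can be read as non-binding. The Z-score is calculated within each array and then averaged across arrays of one protein sequence at different concentrations or buffers and across linkers. Arrays, 3228 in all, were curated from the Consortium for Functional Glycomics database and kept only where the protein sequence was available.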"}, "Fuc(a1-2)Gal(b1-3)GalNAc": {"molecular_target": "Fuc(a1-2)Gal(b1-3)GalNAc", "in_short": "as §1"}, "[1]": {"molecular_target": "Fuc(a1-2)Gal(b1-3)GalNAc(a1-3)[Fuc(a1-2)]Gal(b1-4)Glc", "in_short": "as §1"}, "[2]": {"molecular_target": "Fuc(a1-2)Gal(b1-3)GalNAc(a1-3)[Fuc(a1-2)]Gal(b1-4)GlcNAc", "in_short": "as §1"}, "[3]": {"molecular_target": "Fuc(a1-2)Gal(b1-3)GalNAc(b1-3)Gal", "in_short": "as §1"}, "[4]": {"molecular_target": "Fuc(a1-2)Gal(b1-3)GalNAc(b1-3)Gal(a1-4)Gal(b1-4)Glc", "in_short": "as §1"}, "[5]": {"molecular_target": "Fuc(a1-2)Gal(b1-3)GalNAc(b1-4)[Neu5Ac(a2-3)]Gal(b1-4)Glc", "in_short": "as §1"}, "Fuc(a1-2)Gal(b1-3)GlcNAc": {"molecular_target": "Fuc(a1-2)Gal(b1-3)GlcNAc", "in_short": "as §1"}, "[6]": {"molecular_target": "Fuc(a1-2)Gal(b1-3)GlcNAc(b1-2)Man(a1-3)[Fuc(a1-2)Gal(b1-3)GlcNAc(b1-2)Man(a1-6)]Man(b1-4)GlcNAc(b1-4)GlcNAc", "in_short": "as §1"}, "[7]": {"molecular_target": "Fuc(a1-2)Gal(b1-3)GlcNAc(b1-2)Man(a1-3)[Fuc(a1-2)Gal(b1-3)GlcNAc(b1-2)Man(a1-6)]Man(b1-4)GlcNAc(b1-4)[Fuc(a1-6)]GlcNAc", "in_short": "as §1"}, "[8]": {"molecular_target": "Fuc(a1-2)Gal(b1-3)GlcNAc(b1-3)Gal(b1-4)Glc", "in_short": "as §1"}, "[9]": {"molecular_target": "Fuc(a1-2)Gal(b1-3)GlcNAc(b1-3)GalNAc", "in_short": "as §1"}, "[10]": {"molecular_target": "Fuc(a1-2)Gal(b1-3)GlcNAc(b1-3)[Fuc(a1-2)Gal(b1-3)GlcNAc(b1-6)]GalNAc", "in_short": "as §1"}, "[11]": {"molecular_target": "Fuc(a1-2)Gal(b1-3)GlcNAc(b1-3)[Gal(b1-4)GlcNAc(b1-6)]Gal(b1-4)Glc", "in_short": "as §1"}, "[12]": {"molecular_target": "Fuc(a1-2)Gal(b1-3)GlcNAc(b1-3)[Neu5Ac(a2-6)Gal(b1-4)GlcNAc(b1-6)]Gal(b1-4)Glc", "in_short": "as §1"}, "[13]": {"molecular_target": "Fuc(a1-2)Gal(b1-3)GlcNAc6S", "in_short": "as §1"}, "[14]": {"molecular_target": "Fuc(a1-2)Gal(b1-3)[Fuc(a1-4)]GlcNAc", "in_short": "as §1"}, "[15]": {"molecular_target": "Fuc(a1-2)Gal(b1-3)[Fuc(a1-4)]GlcNAc(b1-2)Man(a1-3)[Fuc(a1-2)Gal(b1-3)[Fuc(a1-4)]GlcNAc(b1-2)Man(a1-3)]Man(b1-4)GlcNAc(b1-4)GlcNAc", "in_short": "as §1"}, "[16]": {"molecular_target": "Fuc(a1-2)Gal(b1-3)[Fuc(a1-4)]GlcNAc(b1-2)Man(a1-3)[Fuc(a1-2)Gal(b1-3)[Fuc(a1-4)]GlcNAc(b1-2)Man(a1-6)]Man(b1-4)GlcNAc(b1-4)[Fuc(a1-6)]GlcNAc(b1-4)[Fuc(a1-6)]GlcNAc", "in_short": "as §1"}, "[17]": {"molecular_target": "Fuc(a1-2)Gal(b1-3)[Fuc(a1-4)]GlcNAc(b1-3)[Fuc(a1-3)[Gal(b1-4)]GlcNAc(b1-6)]Gal(b1-4)Glc", "in_short": "as §1"}, "[18]": {"molecular_target": "Fuc(a1-2)Gal(b1-3)[Fuc(a1-4)]GlcNAc(b1-3)[Gal(b1-4)GlcNAc(b1-6)]Gal(b1-4)Glc", "in_short": "as §1"}, "Fuc(a1-2)Gal(b1-4)Glc": {"molecular_target": "Fuc(a1-2)Gal(b1-4)Glc", "in_short": "as §1"}, "Fuc(a1-2)Gal(b1-4)Glc6S": {"molecular_target": "Fuc(a1-2)Gal(b1-4)Glc6S", "in_short": "as §1"}, "Fuc(a1-2)Gal(b1-4)GlcNAc": {"molecular_target": "Fuc(a1-2)Gal(b1-4)GlcNAc", "in_short": "as §1"}, "[19]": {"molecular_target": "Fuc(a1-2)Gal(b1-4)GlcNAc(b1-2)Man", "in_short": "as §1"}, "[20]": {"molecular_target": "Fuc(a1-2)Gal(b1-4)GlcNAc(b1-2)Man(a1-3)[Fuc(a1-2)Gal(b1-4)GlcNAc(b1-2)Man(a1-6)]Man(b1-4)GlcNAc(b1-4)GlcNAc", "in_short": "as §1"}, "[21]": {"molecular_target": "Fuc(a1-2)Gal(b1-4)GlcNAc(b1-2)Man(a1-3)[Fuc(a1-2)Gal(b1-4)GlcNAc(b1-2)Man(a1-6)]Man(b1-4)GlcNAc(b1-4)[Fuc(a1-6)]GlcNAc", "in_short": "as §1"}, "[22]": {"molecular_target": "Fuc(a1-2)Gal(b1-4)GlcNAc(b1-2)[Fuc(a1-2)Gal(b1-4)GlcNAc(b1-4)]Man(a1-3)[Fuc(a1-2)Gal(b1-4)GlcNAc(b1-2)Man(a1-6)]Man(b1-4)GlcNAc(b1-4)GlcNAc", "in_short": "as §1"}, "[23]": {"molecular_target": "Fuc(a1-2)Gal(b1-4)GlcNAc(b1-3)Gal(b1-4)GlcNAc", "in_short": "as §1"}, "[24]": {"molecular_target": "Fuc(a1-2)Gal(b1-4)GlcNAc(b1-3)Gal(b1-4)GlcNAc(b1-2)Man(a1-3)[Fuc(a1-2)Gal(b1-4)GlcNAc(b1-3)Gal(b1-4)GlcNAc(b1-2)Man(a1-6)]Man(b1-4)GlcNAc(b1-4)GlcNAc", "in_short": "as §1"}}, "note": "The list shows a part of the results.", "data": [{"binder": "Cohesin-marm-DC-ASGPR-CRD (protein) LDITSHHHHHHDDLDAVRIKVDTVNAKPGDTVRIPVRFSGIPSKGIANCDFVYSYDPNVLEIIEIEPGDIIVDPNPDKSFDTAVYPDRKIIVFLFAEDSGTGAYAITKDGVFATIVAKVKEGAPNGLSVIKFVEVGGFANNDLVEQKTQFFDGGVNVGDTTEPATPTTPVTTPTTTDDLDAASCPINWVEHQGSCYWFSRSGKTWPEAERYCQLENTHLVVINSREEQNFVQAHLGSAYTWMGLSDPEGVWKWVDGTDYSSGFQNWKPGQPDDWQGHGLGGGEDCAHFHPDGRWNDDVCQRSYHWVCEAGLTQASQDSH", "values": [{"measurement": "glycan array binding signal (z-score)", "setting": "Fuc(a1-2)Gal", "value": -0.385}, {"measurement": "glycan array binding signal (z-score)", "setting": "Fuc(a1-2)Gal(b1-3)GalNAc", "value": -0.443}, {"measurement": "glycan array binding signal (z-score)", "setting": "[1]", "value": -0.446}, {"measurement": "glycan array binding signal (z-score)", "setting": "[2]", "value": -0.394}, {"measurement": "glycan array binding signal (z-score)", "setting": "[3]", "value": -0.101}, {"measurement": "glycan array binding signal (z-score)", "setting": "[4]", "value": -0.384}, {"measurement": "glycan array binding signal (z-score)", "setting": "[5]", "value": 0.811}, {"measurement": "glycan array binding signal (z-score)", "setting": "Fuc(a1-2)Gal(b1-3)GlcNAc", "value": -0.354}, {"measurement": "glycan array binding signal (z-score)", "setting": "[6]", "value": -0.157}, {"measurement": "glycan array binding signal (z-score)", "setting": "[7]", "value": -0.081}, {"measurement": "glycan array binding signal (z-score)", "setting": "[8]", "value": -0.445}, {"measurement": "glycan array binding signal (z-score)", "setting": "[9]", "value": -0.422}, {"measurement": "glycan array binding signal (z-score)", "setting": "[10]", "value": -0.398}, {"measurement": "glycan array binding signal (z-score)", "setting": "[11]", "value": -0.456}, {"measurement": "glycan array binding signal (z-score)", "setting": "[12]", "value": -0.438}, {"measurement": "glycan array binding signal (z-score)", "setting": "[13]", "value": 0.263}, {"measurement": "glycan array binding signal (z-score)", "setting": "[14]", "value": -0.443}, {"measurement": "glycan array binding signal (z-score)", "setting": "[15]", "value": -0.408}, {"measurement": "glycan array binding signal (z-score)", "setting": "[16]", "value": -0.413}, {"measurement": "glycan array binding signal (z-score)", "setting": "[17]", "value": -0.447}, {"measurement": "glycan array binding signal (z-score)", "setting": "[18]", "value": -0.444}, {"measurement": "glycan array binding signal (z-score)", "setting": "Fuc(a1-2)Gal(b1-4)Glc", "value": -0.347}, {"measurement": "glycan array binding signal (z-score)", "setting": "Fuc(a1-2)Gal(b1-4)Glc6S", "value": -0.446}, {"measurement": "glycan array binding signal (z-score)", "setting": "Fuc(a1-2)Gal(b1-4)GlcNAc", "value": -0.393}, {"measurement": "glycan array binding signal (z-score)", "setting": "[19]", "value": -0.404}, {"measurement": "glycan array binding signal (z-score)", "setting": "[20]", "value": -0.256}, {"measurement": "glycan array binding signal (z-score)", "setting": "[21]", "value": -0.057}, {"measurement": "glycan array binding signal (z-score)", "setting": "[22]", "value": -0.426}, {"measurement": "glycan array binding signal (z-score)", "setting": "[23]", "value": -0.45}, {"measurement": "glycan array binding signal (z-score)", "setting": "[24]", "value": -0.27}]}]}
